Test [1] concerns the target T1, IL7R of human primary CD4+ T cells (human, UniProt P16871 21-459).
T1 sequence (looked up): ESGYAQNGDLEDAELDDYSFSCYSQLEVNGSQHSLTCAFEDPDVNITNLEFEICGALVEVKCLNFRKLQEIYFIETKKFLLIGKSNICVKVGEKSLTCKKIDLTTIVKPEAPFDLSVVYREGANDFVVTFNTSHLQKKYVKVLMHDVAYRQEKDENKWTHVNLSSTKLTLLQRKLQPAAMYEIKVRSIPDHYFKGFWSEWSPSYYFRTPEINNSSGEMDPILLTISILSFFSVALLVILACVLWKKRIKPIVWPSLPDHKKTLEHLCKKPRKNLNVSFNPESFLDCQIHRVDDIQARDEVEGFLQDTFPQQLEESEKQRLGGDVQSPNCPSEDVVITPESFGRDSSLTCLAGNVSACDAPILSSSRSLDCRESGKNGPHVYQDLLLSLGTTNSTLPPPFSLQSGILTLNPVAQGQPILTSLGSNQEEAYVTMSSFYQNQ
In words: cell-based or functional assay.

Test [2] addresses T2, recombinant human his-tagged PD-L1 protein (human, UniProt Q9NZQ7 in part).
T2 construct: also called hPDL1-his; his-tagged human PD-L1; not shown: his tag
In words: SPR (Biacore T200), fusion molecule captured on protein A chip, his-tagged human PD-L1 injected. As to the method:
(§1) A series of dilutions of human PD-L1 protein were injected over captured antibody at a flow rate of 10 μL/min. […] All the experiments were carried out on a Biacore T200. Data analysis was carried out using Biacore T200 evaluation software.

In test [3] the target is T3, PD-L1 expressed on cells (Raji-PD-L1; tumor cell lines RKO, HCC1954, HCC827) (human, UniProt Q9NZQ7).
T3 construct: whole, on cells; also called cell-surface expressed PD-L1; cell surface PD-L1
Put plainly: flow cytometry on Raji-PD-L1 cells, PE anti-human IgG Fc, MFI. As to the method:
After washing by FACS staining buffer, the PE-conjugated anti-human IgG Fc specific antibody was added to each well and incubated on ice for 30 mins. The MFI of PE were evaluated by FACS Celesta.
(A flow cytometer gives signals particle by particle.)

Test [4] addresses T2, recombinant human his-tagged PD-L1 …. Put plainly: SPR (Biacore T200), ligand captured on protein A chip, hPDL1-his as analyte. As to the method:
as §1
For orientation: SPR reads the build-up and loss of mass on a sensor chip optically.

Test [5] shares this target. Put plainly: ELISA, his-tagged PDL1 coated, OD450. The source says: Briefly, for ELISA-based binding, his-tagged PDL1 was used as coating protein.
On the technique in general: An ELISA detects its analyte on a solid surface through an enzyme-linked reagent.

The text below walks through data of patent US20220112258A1 (I MAB BIOPHARMA US, published 2022).

A word on the Kd: it is the equilibrium constant for the complex coming apart. In general, koff refers to a measure of how fast the partners let go of each other. The term kon denotes the rate constant with which the complex forms. The term EC50 denotes the concentration at which the effect is half-maximal.

B1: L1I7^142A Format 2 (anti-PD-L1 version not stated in the passage) (Fc fusion, part only; not given: anti-PD-L1 heavy and light chains, part only)
chain: DCDIEGKDGKQYESVLMVSIDQLLDSMKEIGSNCLNNEFNFFKRHICDANKEGMFLFRAARKLRQFLKMNSTGDFDLHLLKVSEGTTILLNCTGQVKGRKPAALGEAQPTKSLEENKSLKEQKKLNDLCFLKRLLQEIKTCANKILMGTKEH[human IgG1 Fc with changes not listed]
In test [1], B1 showed a fold decrease in EC50 of CD4+ T cell proliferation against L1I7^WT, six donors of 200 to 1000 fold.

B2: L1I7^WT(anti-PD-L1 v4) Format 2 (Fc fusion)
heavy: QVQLLESGGGLVQPGGSLRLSCAASGFTFSSYWMSWVRQAPGKGLEWVANIKQDGSEKYYVDSVKGRFTISRDNAKNSLYLQMNSLRAEDTAVYYCARVALWDDAFDIWGQGTMVTVSSASTKGPSVFPLAPSSKSTSGGTAALGCLVKDYFPEPVTVSWNSGALTSGVHTFPAVLQSSGLYSLSSVVTVPSSSLGTQTYICNVNHKPSNTKVDKKVEPKSCQVQLLESGGGLVQPGGSLRLSCAASGFTFSSYWMSWVRQAPGKGLEWVANIKQDGSEKYYVDSVKGRFTISRDNAKNSLYLQMNSLRAEDTAVYYCARVALWDDAFDIWGQGTMVTVSSASTKGPSVFPLAPSSKSTSGGTAALGCLVKDYFPEPVTVSWNSGALTSGVHTFPAVLQSSGLYSLSSVVTVPSSSLGTQTYICNVNHKPSNTKVDKKV[human IgG1 Fc with changes not listed]
chain: DCDIEGKDGKQYESVLMVSIDQLLDSMKEIGSNCLNNEFNFFKRHICDANKEGMFLFRAARKLRQFLKMNSTGDFDLHLLKVSEGTTILLNCTGQVKGRKPAALGEAQPTKSLEENKSLKEQKKLNDLCFLKRLLQEIKTCWNKILMGTKEH[human IgG1 Fc with changes not listed]
light: DIQMTQSPSTLSASVGDRVIITCRASRGISSWLAWYQQKPGKAPNLLISKASSLESGVPSRFSGSGSGTDFTLTISSLQPEDFATYYCQQSSSIPLTFGGGTKVEIKRTVAAPSVFIFPPSDEQLKSGTASVVCLLNNFYPREAKVQWKVDNALQSGNSQESVTEQDSKDSTYSLSSTLTLSKADYEKHKVYACEVTHQGLSSPVTKSFNRGEC
notes: Format 2: Fab-Fab-Fc chain, IL7-Fc chain, two light chains; also called L1I7^WT Format 2
For the molecule B2, the figures for the Kd in test [2] and in test [4] were 0.745 nM and 0.932 nM, respectively. The koff was 0.000653 s⁻¹ in test [2] and 0.000745 s⁻¹ in test [4]. The values for the on-rate (kon) in test [2] and in test [4] were 877000 M⁻¹ s⁻¹ and 800000 M⁻¹ s⁻¹, respectively. In addition, the concentration giving a half-maximal response (EC50) in test [3] was 0.37 nM; in test [5] it was 0.65 nM.

B3: L1I7^WT(anti-PD-L1 v3) Format 2 (Fc fusion)
heavy: EVQLVESGGGLVQPGGSLRLSCAASGFTFSSYDMSWVRQAPGKSLEWVATISDAGGYIYYSDSVKGRFTISRDNAKNSLYLQMNSLRDEDTAVYICAREFGKRYALDYWGQGTTVTVSSASTKGPSVFPLAPSSKSTSGGTAALGCLVKDYFPEPVTVSWNSGALTSGVHTFPAVLQSSGLYSLSSVVTVPSSSLGTQTYICNVNHKPSNTKVDKKVEPKSCEVQLVESGGGLVQPGGSLRLSCAASGFTFSSYDMSWVRQAPGKSLEWVATISDAGGYIYYSDSVKGRFTISRDNAKNSLYLQMNSLRDEDTAVYICAREFGKRYALDYWGQGTTVTVSSASTKGPSVFPLAPSSKSTSGGTAALGCLVKDYFPEPVTVSWNSGALTSGVHTFPAVLQSSGLYSLSSVVTVPSSSLGTQTYICNVNHKPSNTKVDKKV[human IgG1 Fc with changes not listed]
chain: DCDIEGKDGKQYESVLMVSIDQLLDSMKEIGSNCLNNEFNFFKRHICDANKEGMFLFRAARKLRQFLKMNSTGDFDLHLLKVSEGTTILLNCTGQVKGRKPAALGEAQPTKSLEENKSLKEQKKLNDLCFLKRLLQEIKTCWNKILMGTKEH[human IgG1 Fc with changes not listed]
light: DIQMTQSPSSLSASVGDRVTITCKASQDVTPAVAWYQQKPGKAPKLLIYSTSSRYTGVPSRFSGSGSGTDFTFTISSLQPEDIATYYCQQHYTTPLTFGQGTKLEIKRTVAAPSVFIFPPSDEQLKSGTASVVCLLNNFYPREAKVQWKVDNALQSGNSQESVTEQDSKDSTYSLSSTLTLSKADYEKHKVYACEVTHQGLSSPVTKSFNRGEC
notes: Asymmetrical Format 2: heavy chain-1 Fab-Fab-Fc, heavy chain-2 IL7-Fc, two light chains paired to the longer heavy chain; also called L1I7^WT Format 2; anti-PDL1-IL7 wild type
Turning to B3, in test [4], the Kd stood at 2.51 nM, the koff turned out to be 0.000204 s⁻¹ and the on-rate (kon) stood at 81400 M⁻¹ s⁻¹. Also, in test [5], the concentration giving a half-maximal response (EC50) was found to be 0.11 nM.

B4: LI17^142I (anti-PD-L1 v4) Format 2 (Fc fusion)
heavy: QVQLLESGGGLVQPGGSLRLSCAASGFTFSSYWMSWVRQAPGKGLEWVANIKQDGSEKYYVDSVKGRFTISRDNAKNSLYLQMNSLRAEDTAVYYCARVALWDDAFDIWGQGTMVTVSSASTKGPSVFPLAPSSKSTSGGTAALGCLVKDYFPEPVTVSWNSGALTSGVHTFPAVLQSSGLYSLSSVVTVPSSSLGTQTYICNVNHKPSNTKVDKKVEPKSCQVQLLESGGGLVQPGGSLRLSCAASGFTFSSYWMSWVRQAPGKGLEWVANIKQDGSEKYYVDSVKGRFTISRDNAKNSLYLQMNSLRAEDTAVYYCARVALWDDAFDIWGQGTMVTVSSASTKGPSVFPLAPSSKSTSGGTAALGCLVKDYFPEPVTVSWNSGALTSGVHTFPAVLQSSGLYSLSSVVTVPSSSLGTQTYICNVNHKPSNTKVDKKV[human IgG1 Fc with changes not listed]
chain: DCDIEGKDGKQYESVLMVSIDQLLDSMKEIGSNCLNNEFNFFKRHICDANKEGMFLFRAARKLRQFLKMNSTGDFDLHLLKVSEGTTILLNCTGQVKGRKPAALGEAQPTKSLEENKSLKEQKKLNDLCFLKRLLQEIKTCINKILMGTKEH[human IgG1 Fc with changes not listed]
light: B2 light
notes: Format 2 with IL-7 W142I
Take B4: in test [2], the Kd stood at 0.728 nM, the off-rate (koff) is 0.000673 s⁻¹ and the kon was found to be 925000 M⁻¹ s⁻¹. The molecule further yielded an EC50 in test [3] of 0.28 nM. Besides, the EC50 in test [5] was 0.94 nM.
